# Measured values reported in a collection of fitness landscapes (doi:10.1016/j.celrep.2020.107928).
# The full ranking holds about 81,000 sequences; the median of “one-hybrid fitness for binding parS DNA” is about -0.17, and the highest 2% start at about 0.51. This is one part of the list.
# B1: Caulobacter ParB omega fusion; a variant is named by its letters at X, in order, B8GW30 (parent)
# chain: MESVVVGEPGMSEGRRGLGRGLSALLGEVDAAPAQAPGEQLGGSREAPIEILQRNPDQPRRTFREEDLEDLSNSIREKGVLQPILVRPSPDTAGEYQIVAGERAWRAAQRAGLKTVPIMVRELDDLAVLEIGIIENVQRADLNVLEEALSYKVLMEKFERTQENIAQTIGKSXSHVANXMRLLXLPDEVQSYLVSGELTAXHARAIAAAADPVALAKQIIEGGLSVRETEALARKAPNLSAGKSKGGRPPRVKDTDTQALESDLSSVLGLDVSIDHRGSTGTLTITYATLEQLDDLCNRLTRGI
# Variants of: B1
# Experiment: one-hybrid fitness for binding parS DNA (scaled: cognate 1, non-cognate 0); higher = stronger binding
# Details: with parS DNA site
# Summary of the method: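 Selection: bacterial one-hybrid in E. coli USO, HIS3 reporter with the site 19 bp from the promoter, 48 hours at 37°C on M9-minus-histidine plus 0.1 mM IPTG and 5 mM 3-AT. Libraries were Caulobacter ParB with four randomised specificity codons, sequenced on Illumina before and after selection. Fitness is the rescaled log change in variant-to-wild-type read ratio, anchored to the cognate and non-cognate sites.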
row,Variant,one-hybrid fitness for binding parS DNA
1,NGAL,≤ 0.2
2,IISC,≤ 0.2
3,SFTL,≤ 0.2
4,KQWG,≤ 0.2
5,TIDK,≤ 0.2
6,SMRC,≤ 0.2
7,WPST,≤ 0.2
8,YVSQ,≤ 0.2
9,NQWP,≤ 0.2
10,FDVD,≤ 0.2
11,RSES,0.902
12,LFME,≤ 0.2
13,PMRC,≤ 0.2
14,IHPR,≤ 0.2
15,VCQS,≤ 0.2
16,ALRQ,≤ 0.2
17,WQSG,≤ 0.2
18,SWYT,≤ 0.2
19,AALP,≤ 0.2
20,GSHK,≤ 0.2
21,GSNS,≤ 0.2
22,ERVG,≤ 0.2
23,QCSF,≤ 0.2
24,FHHC,≤ 0.2

row,Variant,one-hybrid fitness for binding parS DNA
1,TKVY,≤ 0.2
2,YPFC,≤ 0.2
3,AAEP,≤ 0.2
4,PSLW,≤ 0.2
5,APPL,≤ 0.2
6,DGGS,≤ 0.2
7,PPMF,≤ 0.2
8,RIMW,≤ 0.2
9,TWAF,≤ 0.2
10,DRVV,≤ 0.2
11,TCIR,≤ 0.2
12,FDRV,≤ 0.2
13,VVFC,≤ 0.2
14,NWHD,≤ 0.2
15,EHCS,≤ 0.2
16,CEFR,≤ 0.2
17,HDTY,≤ 0.2
18,KTDA,≤ 0.2
19,NFAG,≤ 0.2
20,CLIH,≤ 0.2
21,CLRW,≤ 0.2
22,PLYT,≤ 0.2
23,PAMG,≤ 0.2
24,WLRR,≤ 0.2

row,Variant,one-hybrid fitness for binding parS DNA
1,IAFM,≤ 0.2
2,MMPT,≤ 0.2
3,PKKC,≤ 0.2
4,KMYA,≤ 0.2
5,KWAS,≤ 0.2
6,STTK,≤ 0.2
7,ERQG,≤ 0.2
8,HSTR,≤ 0.2
9,IYIV,≤ 0.2
10,STRP,≤ 0.2
11,CRVM,≤ 0.2
12,EYTA,≤ 0.2
13,FWPG,≤ 0.2
14,HRTD,≤ 0.2
15,AYDW,≤ 0.2
16,GRAS,≤ 0.2
17,VLHP,≤ 0.2
18,GGDL,≤ 0.2
19,FRKN,≤ 0.2
20,PLSY,≤ 0.2
21,VRLC,≤ 0.2
22,NAIH,≤ 0.2
23,QSME,≤ 0.2
24,MWWS,≤ 0.2

row,Variant,one-hybrid fitness for binding parS DNA
1,NRVS,≤ 0.2
2,EDLS,≤ 0.2
3,KLYC,≤ 0.2
4,ATCR,≤ 0.2
5,PIQQ,≤ 0.2
6,TLNE,≤ 0.2
7,QAPY,≤ 0.2
8,PSKG,≤ 0.2
9,YPHD,≤ 0.2
10,TPYY,≤ 0.2
11,EMAC,≤ 0.2
12,KFPC,≤ 0.2
13,MHVT,≤ 0.2
14,IGDW,≤ 0.2
15,APTG,≤ 0.2
16,LTSD,≤ 0.2
17,KSNN,≤ 0.2
18,SSWT,≤ 0.2
19,PGIS,≤ 0.2
20,HTKM,≤ 0.2
21,RGNG,0.801
22,LDWL,≤ 0.2
23,SAGE,≤ 0.2
24,IPHV,≤ 0.2

row,Variant,one-hybrid fitness for binding parS DNA
1,PVML,≤ 0.2
2,AWNS,≤ 0.2
3,ASPR,≤ 0.2
4,QIKP,≤ 0.2
5,TFKC,≤ 0.2
6,MQSY,≤ 0.2
7,ELCF,≤ 0.2
8,KGGI,≤ 0.2
9,NTRV,≤ 0.2
10,RQDH,≤ 0.2
11,CFRT,≤ 0.2
12,VVPP,≤ 0.2
13,YLYR,≤ 0.2
14,NHDW,≤ 0.2
15,ANKC,≤ 0.2
16,TLPL,≤ 0.2
17,KANL,≤ 0.2
18,RFSH,≤ 0.2
19,ETKR,≤ 0.2
20,TPCD,≤ 0.2
21,YSAG,≤ 0.2
22,DFLS,≤ 0.2
23,QKQI,≤ 0.2
24,PEAN,≤ 0.2

row,Variant,one-hybrid fitness for binding parS DNA
1,NTTI,≤ 0.2
2,RRVC,0.673
3,GPCI,≤ 0.2
4,LHVT,≤ 0.2
5,VIVS,≤ 0.2
6,YLAD,≤ 0.2
7,QSQH,≤ 0.2
8,KTMR,≤ 0.2
9,LRLG,≤ 0.2
10,QCPV,≤ 0.2
11,NSLW,≤ 0.2
12,YQAR,≤ 0.2
13,LVED,≤ 0.2
14,ADTP,≤ 0.2
15,AKPN,≤ 0.2
16,KRRD,≤ 0.2
17,QTAV,≤ 0.2
18,EVVR,≤ 0.2
19,MGVG,≤ 0.2
20,QKID,≤ 0.2
21,HAQY,≤ 0.2
22,LREM,≤ 0.2
23,YDWG,≤ 0.2
24,GGSF,≤ 0.2

row,Variant,one-hybrid fitness for binding parS DNA
1,VSHT,≤ 0.2
2,PQGY,≤ 0.2
3,LEDW,≤ 0.2
4,LSRH,≤ 0.2
5,VWKI,≤ 0.2
6,AIWC,≤ 0.2
7,YTST,≤ 0.2
8,NIAY,≤ 0.2
9,QRSI,≤ 0.2
10,NTAE,≤ 0.2
11,VTAS,≤ 0.2
12,KRAC,≤ 0.2
13,ANND,≤ 0.2
14,CMNC,≤ 0.2
15,GSVQ,≤ 0.2
16,YPQY,≤ 0.2
17,PKID,≤ 0.2
18,QPAT,≤ 0.2
19,PQKY,≤ 0.2
20,SNTA,≤ 0.2
21,TKAC,≤ 0.2
22,RYWA,0.554
23,QHDF,≤ 0.2
24,SGQL,≤ 0.2

row,Variant,one-hybrid fitness for binding parS DNA
1,MMEC,≤ 0.2
2,RIFY,0.462
3,STAQ,≤ 0.2
4,AGGR,≤ 0.2
5,HGCS,≤ 0.2
6,IYVT,≤ 0.2
7,SYGG,≤ 0.2
8,TEHC,≤ 0.2
9,QRKV,≤ 0.2
10,DAPS,≤ 0.2
11,KPIS,≤ 0.2
12,KSIV,≤ 0.2
13,KRCL,≤ 0.2
14,PVGT,≤ 0.2
15,NHQT,≤ 0.2
16,TVIG,≤ 0.2
17,RNWQ,≤ 0.2
18,KHMG,≤ 0.2
19,WDMT,0.344
20,PHKA,≤ 0.2
21,SRDI,≤ 0.2
22,VDAS,≤ 0.2
23,LVAY,≤ 0.2
24,QPHF,≤ 0.2

row,Variant,one-hybrid fitness for binding parS DNA
1,LDHC,≤ 0.2
2,LCRV,≤ 0.2
3,HGLM,≤ 0.2
4,RETH,≤ 0.2
5,YMEF,≤ 0.2
6,IKRT,≤ 0.2
7,DYIS,≤ 0.2
8,ELFG,≤ 0.2
9,SRKQ,≤ 0.2
10,SQQA,≤ 0.2
11,RQMA,0.596
12,NMPE,≤ 0.2
13,VELC,≤ 0.2
14,KFYT,≤ 0.2
15,QTPT,≤ 0.2
16,CGAY,≤ 0.2
17,MATR,≤ 0.2
18,PYPI,≤ 0.2
19,QDPE,≤ 0.2
20,MGVN,≤ 0.2
21,VLSG,≤ 0.2
22,SQIW,≤ 0.2
23,SRVL,≤ 0.2
24,IIPC,≤ 0.2

row,Variant,one-hybrid fitness for binding parS DNA
1,LHEK,≤ 0.2
2,DDDP,≤ 0.2
3,QNRV,≤ 0.2
4,LCLM,≤ 0.2
5,AYLA,≤ 0.2
6,NWLE,≤ 0.2
7,SCAR,≤ 0.2
8,RMNN,0.467
9,TAYR,≤ 0.2
10,RNWP,≤ 0.2
11,LYAG,≤ 0.2
12,AMPN,≤ 0.2
13,HSPG,≤ 0.2
14,RFLM,0.247
15,ASQT,≤ 0.2
16,QGKN,≤ 0.2
17,SKRA,≤ 0.2
18,LLCT,≤ 0.2
19,NYER,≤ 0.2
20,SFAT,≤ 0.2
21,PMST,≤ 0.2
22,LYCS,≤ 0.2
23,RAWH,0.223
24,RSCM,0.347

row,Variant,one-hybrid fitness for binding parS DNA
1,YLNS,≤ 0.2
2,ERTI,≤ 0.2
3,QIVV,≤ 0.2
4,DHNS,≤ 0.2
5,VYPT,≤ 0.2
6,HMHT,≤ 0.2
7,MQCR,≤ 0.2
8,FRNR,≤ 0.2
9,YPHC,≤ 0.2
10,TNCL,≤ 0.2
11,RKSL,≤ 0.2
12,QRST,≤ 0.2
13,YGER,≤ 0.2
14,CGQV,≤ 0.2
15,QRCI,≤ 0.2
16,QFHS,≤ 0.2
17,TNNC,≤ 0.2
18,DPCG,≤ 0.2
19,QYWS,≤ 0.2
20,EQLG,≤ 0.2
21,KRKN,≤ 0.2
22,WVDV,≤ 0.2
23,LYFQ,≤ 0.2
24,VWLK,≤ 0.2

row,Variant,one-hybrid fitness for binding parS DNA
1,LMSR,≤ 0.2
2,PTCP,≤ 0.2
3,HATF,≤ 0.2
4,VRYW,≤ 0.2
5,WKLY,≤ 0.2
6,PVKC,≤ 0.2
7,TVVL,≤ 0.2
8,HFVS,≤ 0.2
9,GAYG,≤ 0.2
10,LPCS,≤ 0.2
11,RKTS,0.815
12,RNAL,≤ 0.2
13,HYET,≤ 0.2
14,ERVN,≤ 0.2
15,WTAR,≤ 0.2
16,SDYT,≤ 0.2
17,SRVM,≤ 0.2
18,YLPR,≤ 0.2
19,NDTT,≤ 0.2
20,PRPM,≤ 0.2
21,SSCV,≤ 0.2
22,QADQ,≤ 0.2
23,AGLT,≤ 0.2
24,LVYM,≤ 0.2

row,Variant,one-hybrid fitness for binding parS DNA
1,IRRM,≤ 0.2
2,SQTC,≤ 0.2
3,DRYP,≤ 0.2
4,YYCL,≤ 0.2
5,YSHL,≤ 0.2
6,VGIG,≤ 0.2
7,YRYF,≤ 0.2
8,TMGD,≤ 0.2
9,QQGC,≤ 0.2
10,IPDA,≤ 0.2
11,TRWF,≤ 0.2
12,LLYP,≤ 0.2
13,VNPD,≤ 0.2
14,VSLS,≤ 0.2
15,PTMA,≤ 0.2
16,LKYI,≤ 0.2
17,DPDN,≤ 0.2
18,IARY,≤ 0.2
